The results in this text go back to the BET-seq Pho4 binding data (Le et al. 2018).

The list shows a part of the results. These are noisy estimates, calculated here from bound and input reads.

The assay concerns the target T1, Pho4 (S. cerevisiae) (UniProt P07270).
T1 sequence: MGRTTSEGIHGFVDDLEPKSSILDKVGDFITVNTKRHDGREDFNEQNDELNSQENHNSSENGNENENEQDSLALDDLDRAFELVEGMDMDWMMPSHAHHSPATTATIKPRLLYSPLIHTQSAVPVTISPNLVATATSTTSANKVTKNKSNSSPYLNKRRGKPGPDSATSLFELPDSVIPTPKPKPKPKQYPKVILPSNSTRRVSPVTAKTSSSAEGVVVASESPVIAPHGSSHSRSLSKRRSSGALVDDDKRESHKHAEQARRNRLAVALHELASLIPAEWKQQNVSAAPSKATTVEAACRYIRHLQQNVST
Put plainly: relative binding free energy (BET-seq); higher = weaker binding. As to conditions: reference: library average.
On to TATTGCACGTGACTGA, for which the “relative binding free energy” value was found to be 0.15 kcal/mol.
For GTTGTCACGTGGAGAG the value was 0.11 kcal/mol; for ATTTGCACGTGGCGGG, -0.02 kcal/mol.
With CAGCGCACGTGTGGAG the figure was 0.02 kcal/mol.
Consider GGGGTCACGTGAGGTT, for which the “relative binding free energy” value amounted to 0.4 kcal/mol.
With GGGGTCACGTGAGATC the figure was 0.44 kcal/mol; with AGTGTCACGTGGTTAT, -0.01 kcal/mol.
With GTGCGCACGTGTGTGC the figure was -0.18 kcal/mol.
For TAATGCACGTGTGTTT the value was 0.05 kcal/mol; for GGAGGCACGTGGCGTA, -0.28 kcal/mol.
As to ATGATCACGTGGGAGT, the “relative binding free energy” value turned out to be 0 kcal/mol.
For GCTGTCACGTGTGGGA the value was 0.23 kcal/mol; for TGTAGCACGTGGATAG, -0.06 kcal/mol.
With GAAGGCACGTGTGTGG the figure was -0.08 kcal/mol.
ATGCACACGTGGTAGG: the “relative binding free energy” value was -0.08 kcal/mol.
Regarding GGGAACACGTGGTATG, the “relative binding free energy” value was -0.04 kcal/mol.
With GTATTCACGTGTAAAG the figure was 0.24 kcal/mol; with CACTGCACGTGTGGGT, 0 kcal/mol; with AGGAACACGTGATTGT, 0.19 kcal/mol.
With GTGACCACGTGGGTGG the figure was -0.14 kcal/mol; with AAGCTCACGTGTGGTG, 0.04 kcal/mol; with TTGTTCACGTGATCGC, 0.36 kcal/mol.
For GTGGTCACGTGAGAGA the value was 0.4 kcal/mol.
As for TGAGGCACGTGAGGTA, the “relative binding free energy” value worked out at 0.17 kcal/mol.
With AGGAGCACGTGGAAGG the figure was 0.05 kcal/mol; with TGGTGCACGTGATTTC, 0.11 kcal/mol.
With CAGTTCACGTGTAGTT the figure was 0.17 kcal/mol; with TGTGGCACGTGTCTTA, -0.15 kcal/mol; with GTAGTCACGTGATAAT, 0.22 kcal/mol.
As for AGCTTCACGTGAGTGG, the “relative binding free energy” value amounted to 0.21 kcal/mol.
For TTGTACACGTGTGTTA the value was 0.12 kcal/mol; for ATGGGCACGTGGCTAG, -0.39 kcal/mol; for TGTTGCACGTGATCGG, 0.03 kcal/mol.
Take AAATGCACGTGTGAAT: the “relative binding free energy” value was found to be 0.17 kcal/mol.
With GTAGTCACGTGCGGTG the figure was 0.17 kcal/mol; with GTCGGCACGTGGGGTA, -0.12 kcal/mol.
With GGTTACACGTGAAAGT the figure was 0.34 kcal/mol; with ACTATCACGTGGTGAG, 0.1 kcal/mol.
With CAGTACACGTGTTGTT the figure was 0.01 kcal/mol.
For TTTAGCACGTGAGTGT, the “relative binding free energy” value stood at 0.08 kcal/mol.
With GAAGGCACGTGACGTG the figure was 0.07 kcal/mol; with TGTAACACGTGGTTAA, -0.02 kcal/mol; with GACGGCACGTGATTGG, 0.19 kcal/mol.
With GAAGACACGTGTTGTG the figure was 0.11 kcal/mol; with AAGCGCACGTGTATGG, 0.02 kcal/mol.
On to GGTGTCACGTGGGGAA, for which the “relative binding free energy” value was found to be 0.03 kcal/mol.
Consider ACGGACACGTGGGGTT, for which the “relative binding free energy” value is -0.06 kcal/mol.
For GTTTGCACGTGAAATT the value was 0.24 kcal/mol.
Take GGTCTCACGTGGTCGG: the “relative binding free energy” value stood at 0.22 kcal/mol.
For CATAGCACGTGAGGGG the value was 0.23 kcal/mol; for ATAGGCACGTGTTTCA, -0.11 kcal/mol; for CTTGGCACGTGTGGAA, 0.05 kcal/mol.
Consider GTATCCACGTGGTAGG, for which the “relative binding free energy” value was -0.05 kcal/mol.
GAGTGCACGTGTGTTT: the “relative binding free energy” value was found to be 0.14 kcal/mol.
For TCTATCACGTGCGTTG, the “relative binding free energy” value amounted to 0.29 kcal/mol.
With GGCGGCACGTGGTCTG the figure was -0.17 kcal/mol; with AGAGTCACGTGGAAAA, 0.43 kcal/mol.
Turning to TTACTCACGTGGTTTG, the “relative binding free energy” value amounted to 0.25 kcal/mol.
With GGGTGCACGTGAGCGA the figure was 0.08 kcal/mol; with GCGTTCACGTGGAAAG, 0.44 kcal/mol.
With TACGTCACGTGCGGGT the figure was 0.04 kcal/mol; with TGGCTCACGTGGGAGA, 0.08 kcal/mol.
GGGCACACGTGGGTTC: the “relative binding free energy” value was determined as 0.01 kcal/mol.
With GGGTGCACGTGTCAGA the figure was 0.04 kcal/mol.
GTTTTCACGTGGGTGG: the “relative binding free energy” value is 0.3 kcal/mol.
Regarding CTAGGCACGTGTGGTC, the “relative binding free energy” value is -0.1 kcal/mol.
For TGTATCACGTGCATTG the value was 0.07 kcal/mol.
With TTCGGCACGTGCAGTT the figure was 0.07 kcal/mol.
For GTGGGCACGTGTAGGT the value was -0.03 kcal/mol; for TATGTCACGTGGTACT, -0.06 kcal/mol.
Consider TCTTTCACGTGGTGCA, for which the “relative binding free energy” value is 0.28 kcal/mol.
On to TGAGTCACGTGGCAAT, for which the “relative binding free energy” value is 0.12 kcal/mol.
For AGTGTCACGTGTAATT, the “relative binding free energy” value was determined as 0.1 kcal/mol.
With GTCGCCACGTGGTGTA the figure was -0.04 kcal/mol; with GGTCCCACGTGGATGT, 0.02 kcal/mol.
For the sequence TATGACACGTGTTTAT, the “relative binding free energy” value is 0.03 kcal/mol.
Regarding TCTTTCACGTGAGGGG, the “relative binding free energy” value was 0.41 kcal/mol.
With ATTTTCACGTGGGCGC the figure was 0.18 kcal/mol.
With GATATCACGTGTGATT the figure was 0.27 kcal/mol; with CGAGTCACGTGTAGGG, 0.01 kcal/mol.
With GTTGTCACGTGGTTAT the figure was 0.14 kcal/mol; with TTCTGCACGTGTTCAT, 0 kcal/mol; with TTTTACACGTGTCTTT, 0.12 kcal/mol.
CATGACACGTGGGGTG: the “relative binding free energy” value was -0.19 kcal/mol.
For ATCGGCACGTGGGTAG the value was -0.2 kcal/mol; for ACGGGCACGTGAGGAT, 0.21 kcal/mol; for TTTTTCACGTGGCTAA, 0.3 kcal/mol.
For the sequence TGAGACACGTGACGGG, the “relative binding free energy” value turned out to be 0.14 kcal/mol.
For TTTGTCACGTGGGAAG the value was 0.02 kcal/mol.
With TTAGTCACGTGTTCTG the figure was 0.14 kcal/mol; with TGGATCACGTGTCGAT, 0.12 kcal/mol.
For ATGAACACGTGTACGG the value was 0.17 kcal/mol; for GTCAGCACGTGGTTGG, 0.03 kcal/mol; for GATAGCACGTGCTGGT, -0.11 kcal/mol.
As for AATTTCACGTGGAGCA, the “relative binding free energy” value came to 0.35 kcal/mol.
With TTAATCACGTGTTGAT the figure was 0.15 kcal/mol; with TATTCCACGTGTGTAG, 0.05 kcal/mol.
For GTGAGCACGTGGTAAT the value was -0.17 kcal/mol; for GATATCACGTGGGGTA, 0.04 kcal/mol.
With TTGTTCACGTGGGGTA the figure was 0.14 kcal/mol; with ATGTTCACGTGCGGGC, 0.13 kcal/mol.
On to GTTTTCACGTGTCTGG, for which the “relative binding free energy” value is 0.42 kcal/mol.
With TAGTGCACGTGCTCGT the figure was -0.09 kcal/mol.
For TAACGCACGTGTTGGG the value was -0.12 kcal/mol; for TGACGCACGTGGGGGG, -0.17 kcal/mol.
GGTACCACGTGTTGTT: the “relative binding free energy” value is 0 kcal/mol.
With GTGTTCACGTGATAGT the figure was 0.25 kcal/mol.
For GCTTACACGTGGGAGT the value was 0.15 kcal/mol; for ACTTGCACGTGAGAGT, 0.37 kcal/mol; for ATTGGCACGTGTGGGA, -0.03 kcal/mol.
With GTTTTCACGTGCTGTC the figure was 0.27 kcal/mol; with GTAGTCACGTGCTTTT, 0.13 kcal/mol.
For the sequence ATCTGCACGTGCTGGG, the “relative binding free energy” value was -0.01 kcal/mol.
TGTGGCACGTGCCAGT: the “relative binding free energy” value is -0.08 kcal/mol.
For TATTGCACGTGTAGCA, the “relative binding free energy” value was 0.14 kcal/mol.
